Paper PMC4336329 (PLoS ONE, 2015)
About 2,200 (0.71%) of roughly 310,000 compounds showed an effect of 50% or more. The effect is printed as a negative number. The list shows a part of the results.

These compounds were tested against human ether-à-go-go-related gene (hERG) potassium channel (human, UniProt Q12809) (assay: primary screen, population patch clamp on CHO cells stably expressing hERG).
Chain of human ether-à-go-go-related gene (hERG) potassium channel (Q12809 whole entry, looked up): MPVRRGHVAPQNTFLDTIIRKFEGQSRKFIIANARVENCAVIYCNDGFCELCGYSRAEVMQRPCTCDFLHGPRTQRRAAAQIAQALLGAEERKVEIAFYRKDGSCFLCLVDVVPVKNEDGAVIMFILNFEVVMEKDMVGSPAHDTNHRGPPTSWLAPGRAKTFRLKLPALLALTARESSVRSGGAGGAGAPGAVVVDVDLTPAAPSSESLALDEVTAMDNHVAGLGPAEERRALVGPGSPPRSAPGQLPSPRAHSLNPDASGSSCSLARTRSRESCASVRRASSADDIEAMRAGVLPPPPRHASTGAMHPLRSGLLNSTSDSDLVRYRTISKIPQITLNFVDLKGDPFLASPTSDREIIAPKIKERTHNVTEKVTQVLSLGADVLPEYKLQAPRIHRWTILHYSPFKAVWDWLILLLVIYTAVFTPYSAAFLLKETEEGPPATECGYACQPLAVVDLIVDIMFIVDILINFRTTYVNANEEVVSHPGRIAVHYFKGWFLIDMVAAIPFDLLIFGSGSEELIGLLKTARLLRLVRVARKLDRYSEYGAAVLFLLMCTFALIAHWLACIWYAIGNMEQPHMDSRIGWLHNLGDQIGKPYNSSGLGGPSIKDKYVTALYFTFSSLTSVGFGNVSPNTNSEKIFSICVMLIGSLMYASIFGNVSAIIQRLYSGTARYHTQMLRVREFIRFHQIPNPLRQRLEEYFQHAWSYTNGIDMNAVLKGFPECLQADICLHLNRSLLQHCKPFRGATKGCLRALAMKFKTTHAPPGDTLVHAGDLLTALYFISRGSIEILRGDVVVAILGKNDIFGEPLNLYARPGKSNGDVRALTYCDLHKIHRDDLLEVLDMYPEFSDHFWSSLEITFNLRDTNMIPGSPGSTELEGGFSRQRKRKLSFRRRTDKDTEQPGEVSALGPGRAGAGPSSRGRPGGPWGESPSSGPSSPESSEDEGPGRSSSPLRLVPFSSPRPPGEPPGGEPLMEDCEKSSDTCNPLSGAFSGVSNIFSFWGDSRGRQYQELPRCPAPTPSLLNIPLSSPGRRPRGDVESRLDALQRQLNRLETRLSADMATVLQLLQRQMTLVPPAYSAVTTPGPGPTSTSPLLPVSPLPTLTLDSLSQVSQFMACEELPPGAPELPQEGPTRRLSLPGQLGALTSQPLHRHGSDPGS

SMILES	hERG current change (%, negative = inhibition) at 1uM [%]
FC(F)(F)COc1cc(-c2nnc(SCc3ccccc3)n2Cc2ccco2)cc(OCC(F)(F)F)n1	7.9
CCc1cc(Cn2nc(-c3ccccc3)cc2C(=O)NCc2cccs2)on1	-2.22
COCc1cc(=O)n2[nH]cc(-c3ccsc3)c2n1	6.74
CCOc1ccc(-n2c(C)nc3cc(C(=O)NCc4ccc5c(c4)OCO5)ccc32)cc1	-4.26
O=C(CCC(=O)c1cccs1)OCc1nnc(-c2ccccc2)o1	10.6
COc1cccc(Cn2c(NCc3ccco3)nc3c2c(=O)n(C)c(=O)n3C)c1	-2.28
O=C(c1ccc(Br)s1)N1CCCC1	0.124
O=C(CC1C(=O)NCCN1Cc1ccccc1)NCCCOc1cccnc1 (stereo not drawn)	13.7
Nc1nnc(Cc2ccccc2)s1	-8.31
CCOC(=O)c1c(NC(=O)CCC(=O)O)sc2c1CC(C)(C)OC2	13.4
Cc1cc(F)ccc1NC(=S)NCCc1ccccc1	17.7
CC(C)(C)SCCNC(=O)/C=C/c1ccc([N+](=O)[O-])cc1	-11
CCCN=C(C)c1c(-c2ccccc2)[nH]n(-c2nc3ccccc3s2)c1=O	7.75
CCCc1[nH][nH]c(=O)c1C(c1cccc(Cl)c1)C(C#N)C#N (stereo not drawn)	10.7
COc1ccc(CCC(=O)Nc2nc(-c3ccncc3)cs2)cc1	-7.84
CC(C)Cn1c(C(C)C)nc([N+](=O)[O-])c1Sc1ccc(Cl)cn1	11.4
CN(C)CC(O)CN(c1ccccc1)c1ccccc1 (stereo not drawn)	-25.6
CC(c1ccccc1)n1cc(C(=O)NCCN2CCOCC2)nn1 (stereo not drawn)	10.2
CCc1cc2c(=O)n(-c3ccccc3)c(SCC(N)=O)nc2s1	5.57
Cc1cc(C(=O)Nc2cccc3ccccc23)co1	4.84
CC(NC(=O)COc1ccccc1-c1ccccc1)c1ccccc1 (stereo not drawn)	13.2
Cc1cc(C)c(S(C)(=O)=O)c(Oc2ccc(C(C)(C)C)cc2)n1	10.7
Cc1cc(Cl)ccc1NC(=O)CN1C(=O)CSc2ccc(S(=O)(=O)N3CCOCC3)cc21	6.8

SMILES	hERG current change (%, negative = inhibition) at 1uM [%]
CC(c1ccon1)N(C)C(=O)CCc1nnc(C2(c3ccc(Cl)cc3)CCC2)o1 (stereo not drawn)	11.1
NC(=O)c1ccc(NCCCN2CCOCC2)c([N+](=O)[O-])c1	0.862
CC(C)N1CCN(Cc2ccccc2-c2ccco2)CC1CCO (stereo not drawn)	-2.31
COc1ccc(NC(=O)c2nc(SC)ncc2Cl)cc1	1.09
CCCOc1ccc(C(=O)Nc2nc(C)c(Cc3ccc4c(c3)OCO4)s2)cc1	1.56
O=C(/C=C\c1ccco1)NC(=S)Nc1ccccc1O	13.9
Cc1cc(C)nc(-n2nc(C)cc2Nc2ccccc2)n1	3.45
Cc1ccc(S(=O)(=O)N2CCN(C(=O)CSc3nc4ccccc4o3)C2)cc1	-8.31
O=C(Nc1ccc(F)cc1)c1ccc2snnc2c1	0.259
Nc1ccc2c(c1)N=[N+]([O-])c1cc(N)ccc1C2	14.4
Cn1c(CNC(=O)c2cccs2)n[nH]c1=S	12.8
O=C(c1cc(F)c(F)cc1Cl)N1CCCc2ccccc21	6.17
Cc1cc(SCC(=O)NCCN2C(=O)CSC2=O)nc2c(C)cccc12	7.76
COc1cccc(C2=NN(S(C)(=O)=O)C(c3cccs3)C2)c1 (stereo not drawn)	8.75
COc1cccc(NC(=S)/C(=C(\[O-])c2ccc(OC(F)F)cc2)[n+]2ccccc2)c1	6.96
O=c1c2ccc(Cl)cc2[nH]c(=S)n1Cc1cccnc1	13.1
Cc1nn(C)cc1C1C2=C(CC(C)(C)CC2=O)N(c2ccccc2)C2=C1C(=O)CC(C)(C)C2	4.17
NC(=S)N=Nc1c(O)[nH]c2c(Br)cc(Br)cc12	12.7
O=C(O)CCn1c2c(c3ccccc31)CCCC2	19.5
CCOC(=O)N1CCN(C2CC(=O)N(c3ccc(Cl)c(Cl)c3)C2=O)CC1 (stereo not drawn)	3.35
COc1ccc(NC(=O)CCNC(C)=O)cc1NS(=O)(=O)c1ccc(F)cc1	9.74
C=CCn1c(SCC(=O)c2ccc(Cl)cc2)nnc1-c1ccc2c(c1)OCO2	3.97
CC(C)(C)NC(=O)[C@H]1CC[C@H]2[C@@H]3CC[C@H]4NC(=O)C=C[C@]4(C)[C@H]3CC[C@]12C	4.1

SMILES	hERG current change (%, negative = inhibition) at 1uM [%]
Cc1cc2oc(=O)cc(CN3CCC(C)CC3)c2c(C)c1Cl	6
C=CCn1c(CCn2c3ccccc3c3ccccc32)n[nH]c1=S	18.7
Cc1ccc(-c2csc(NC(=O)Cn3cnc4c3c(=O)n(C)c(=O)n4C)n2)cc1C	9.65
CCOC(=O)C1(CCOc2ccccc2)CCN(Cc2ccc(C)s2)CC1	-65.4
O=C(CSc1ccc(F)cc1)NCCSc1ccccc1	4.63
O=C(CNC(=O)c1cccc(Br)c1)N/N=C/c1ccc2c(c1)OCO2	21.7
Cc1cccc(C)c1OCc1nnc(SCC(=O)Nc2ccc(N3CCOCC3)cc2)o1	13.3
COc1ccc(-c2csc(NC(=O)c3c(OC)cccc3OC)n2)cc1	12.2
CCc1c(O)nc(SCC(=O)N(CC)CC)[nH]c1=O	15.2
Cc1cc(C)c2nc(SCc3ccc([N+](=O)[O-])cc3)nc(C)c2c1	2.55
O=C(Nc1ccc2c(c1)OCCO2)C1CCCN(S(=O)(=O)c2cccc3nsnc23)C1 (stereo not drawn)	7.11
Cc1ccccc1NC(=O)CCN1CCN(C/C=C/c2ccccc2)CC1	-72
COc1cc(NC(=O)CCc2c(C)nn(-c3ccc(N4CCOCC4)nn3)c2C)cc(OC)c1OC	12.3
COc1cc2c(cc1OC)C(COc1ccc([N+](=O)[O-])cc1)NCC2 (stereo not drawn)	-43.6
Cc1cc(C)n(-c2nc3ccccc3c3nc(C)nn23)n1	7.9
N#Cc1ccccc1CSc1nc2ncc(Br)cc2[nH]1	-2.45
COc1ccccc1NS(=O)(=O)c1ccc(Cl)c(NC(=O)c2sc3cc(Cl)ccc3c2Cl)c1	15.1
Cc1cc(SCC(=O)Nc2ccccc2)nc(C)n1	6.28
Cc1ccc(CNC(=O)C2CCCN(Cc3cnn(-c4ccccc4)c3-n3cccc3)C2)cc1 (stereo not drawn)	-20.3
CCOC(=O)c1oc2cc(O)ccc2c(=O)c1-c1csc(C)n1	12.1
COc1ccc(OCCC(=O)NCc2ccccc2)cc1	7.29
Cc1c(OCC(=O)NCCN2CCOCC2)ccc2c3c(c(=O)oc12)CCC3	-0.585
Cc1nn(Cc2ccccc2Cl)c(Cl)c1C(=O)OCC(=O)NC(=O)NC1CCCCC1	14.6

SMILES	hERG current change (%, negative = inhibition) at 1uM [%]
CCN(CC)C(=O)CSC1=N/C(=C/c2ccco2)C(=O)N1c1ccc(OC)c(Cl)c1	9.46
Cc1ccc(-c2n[nH]c(=O)c3ccccc23)cc1S(=O)(=O)NCCN1CCOCC1	5.01
Cc1ccc(C(=O)c2c(NC(=O)c3cccnc3)sc3c2CCCC3)cc1	0.762
COc1cnc(NS(=O)(=O)c2ccc(N)cc2)nc1	12.1
COc1ccc(-c2nc3ccc(C)cn3c2NCc2ccc3c(c2)OCO3)cc1	-15
CCCCCN=CC1=C(O)CC(c2ccccc2)CC1=O (stereo not drawn)	7.43
COc1ccc2cc(C3=CC(=O)C[C@H](c4ccc5c(c4)OCO5)C3)ccc2c1	12.5
Cc1cccc(-n2nnnc2SCc2csc(-c3ccccc3)n2)c1	10.5
CCOC(=O)c1[nH]c(C)c(C(=O)NCC2CCCO2)c1C (stereo not drawn)	10.3
O=C(CSc1nnc(-c2ccncc2)o1)Nc1nncs1	15.3
COC(=O)c1ccc(CS(=O)(=O)c2ccc(C)cc2)cc1	12.6
CCOc1ncccc1C(=O)OCC(=O)Nc1ccc(C(C)C)cc1	15.4
COc1ccc(-c2nn(-c3ccccc3C)cc2CNC(C)Cn2cncn2)cc1F (stereo not drawn)	-9.1
Cc1cc(F)ccc1NCc1cccnc1	17.3
CCC(CC)NC1CCCCC1OC (stereo not drawn)	13
CCCOC(=O)CCCN1C(=O)/C(=C2\SC(=S)N(CCCC(=O)OCCC)C2=O)SC1=S	16
COc1cc2c(cc1NC(=O)CSc1nc3cc(Cl)ccc3s1)oc1ccccc12	12.7
Cc1ccc(S(=O)(=O)NC2(C(F)(F)F)NC(=O)N(c3ccc(F)cc3)C2=O)cc1 (stereo not drawn)	5.29
C=CCSc1nc2ccccc2n1S(=O)(=O)c1ccc(Cl)cc1	11.9
CC(=O)c1ccc(OCC(O)CN2CCC(C)CC2)cc1.Cl (stereo not drawn)	-0.759
COc1ccc(C2CC(c3ccccc3)=NN2c2ccc(Cl)c(C(=O)O)c2)cc1 (stereo not drawn)	7.92
